The record followed here is publication PMC12272085, “PRMT1 oligomerization regulates RNA-binding protein cascade to promote pancreatic cancer” (Life Science Alliance, 2025).

The data set deals with the molecule itself. In words: SEC; Superdex 200 Increase 10/300GL, 20 mM Tris pH 8.0, 150 mM NaCl, 2 mM DTT, 0.35 ml/min.

B1: human PRMT1 ([…]) H296A (enzyme)
chain: not shown
notes: human PRMT1, […], single mutant; also called H296A single mutant PRMT1; source: E. coli BL21 (DE3), purified (Ni-NTA, Strep-Tactin, SEC); not shown: His6-Sumo, N-terminal, cleaved
With B1, the “stoichiometry N” value stood at 2.

B2: human PRMT1 ([…]) Y280A (enzyme)
chain: not shown
notes: human PRMT1, […], single mutant; also called Y280A single mutant PRMT1; source: E. coli BL21 (DE3), purified (Ni-NTA, Strep-Tactin, SEC); not shown: His6-Sumo, N-terminal, cleaved
B2: the “stoichiometry N” value was 2.

As a reminder, the stoichiometry N is the number of molecules, sites or subunits per partner or assembly.
